# Some of the results follow.
# Biological target: T1, MBP-FoxP1dN (Mus musculus, UniProt P58462 326-579)
# T1 sequence: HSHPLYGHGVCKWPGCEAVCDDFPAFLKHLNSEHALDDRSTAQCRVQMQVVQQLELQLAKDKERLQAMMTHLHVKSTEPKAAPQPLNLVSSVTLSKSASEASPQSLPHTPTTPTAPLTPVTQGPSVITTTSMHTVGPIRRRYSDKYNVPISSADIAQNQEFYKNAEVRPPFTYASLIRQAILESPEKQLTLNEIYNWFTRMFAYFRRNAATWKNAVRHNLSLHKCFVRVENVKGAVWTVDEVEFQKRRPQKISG
# Test: PD-seq (MBP pull-down with sequencing); 20 mM Tris-HCl pH 7.5, 100 mM NaCl, 1.5 mM MgCl2, 0.4 uM protein, 0.1 uM dsDNA library, 30 min, room temperature, amylose pull-down; high values mean tight binding
# Conditions: protein: recombinant; tags: His6-MBP; chain copies: 2; dsDNA, one strand shown
# Procedure, shortened: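 Binding is given as reads-per-million enrichment, pull-down over input, with replicates pooled. The bait was an N-terminus-lacking mouse FoxP3 or FoxP1 fragment with a His6-MBP tag, expressed in E. coli and used at 0.4 µM with 0.1 µM Klenow-filled degenerate double-stranded DNA library for 30 min at room temperature in Tris pH 7.5 buffer with NaCl and MgCl2. Amylose resin pull-down with three washes was followed by proteinase K release, PCR barcoding and Illumina sequencing.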
row,Sequence,binding signal
1,GATGATTGTTCTCCCAGCTGATGAATTGCTCCATTCGAGTAAACAAATTTTCCTAATCTTTCTGTTCAAGCGCCATCTAC,0.991 RPM ratio (pull-down/input)
2,GATGATTGTTCTCCCAGCTGATGAATTTCATCGCTCGAGTAAACAAATTTTCCTAATCTTTCTGTTCAAGCGCCATCTAC,0.798 RPM ratio (pull-down/input)
3,GATGATTGTTCTCCCAGCTGATGAATTTTCCAACTCGAGTAAACAAATTTTCCTAATCTTTCTGTTCAAGCGCCATCTAC,0.887 RPM ratio (pull-down/input)
4,GATGATTGTTCTCCCAGCTGATGAATTTGCTGACTCGAGTAAACAAATTTTCCTAATCTTTCTGTTCAAGCGCCATCTAC,1.08 RPM ratio (pull-down/input)
5,GATGATTGTTCTCCCAGCTGATGAATTCTATGAATCGAGTAAACAAATTTTCCTAATCTTTCTGTTCAAGCGCCATCTAC,0.911 RPM ratio (pull-down/input)
6,GATGATTGTTCTCCCAGCTGATGAATTGCTCGCATCGAGTAAACAAATTTTCCTAATCTTTCTGTTCAAGCGCCATCTAC,1.18 RPM ratio (pull-down/input)
7,GATGATTGTTCTCCCAGCTGATGAATTCAGTAACTCGAGTAAACAAATTTTCCTAATCTTTCTGTTCAAGCGCCATCTAC,0.879 RPM ratio (pull-down/input)
8,GATGATTGTTCTCCCAGCTGATGAATTTATACGTTCGAGTAAACAAATTTTCCTAATCTTTCTGTTCAAGCGCCATCTAC,1.19 RPM ratio (pull-down/input)
9,GATGATTGTTCTCCCAGCTGATGAATTCGATGATTCGAGTAAACAAATTTTCCTAATCTTTCTGTTCAAGCGCCATCTAC,0.978 RPM ratio (pull-down/input)
10,GATGATTGTTCTCCCAGCTGATGAATTCAACGTGTCGAGTAAACAAATTTTCCTAATCTTTCTGTTCAAGCGCCATCTAC,0.875 RPM ratio (pull-down/input)
11,GATGATTGTTCTCCCAGCTGATGAATTGAATCTATCGAGTAAACAAATTTTCCTAATCTTTCTGTTCAAGCGCCATCTAC,0.958 RPM ratio (pull-down/input)
12,GATGATTGTTCTCCCAGCTGATGAATTCGATGGATCGAGTAAACAAATTTTCCTAATCTTTCTGTTCAAGCGCCATCTAC,0.814 RPM ratio (pull-down/input)
13,GATGATTGTTCTCCCAGCTGATGAATTGTCACCTTCGAGTAAACAAATTTTCCTAATCTTTCTGTTCAAGCGCCATCTAC,1.07 RPM ratio (pull-down/input)
14,GATGATTGTTCTCCCAGCTGATGAATTGATGAGGTCGAGTAAACAAATTTTCCTAATCTTTCTGTTCAAGCGCCATCTAC,0.884 RPM ratio (pull-down/input)
15,GATGATTGTTCTCCCAGCTGATGAATTAGAAAATTCGAGTAAACAAATTTTCCTAATCTTTCTGTTCAAGCGCCATCTAC,0.856 RPM ratio (pull-down/input)
16,GATGATTGTTCTCCCAGCTGATGAATTGGATCCATCGAGTAAACAAATTTTCCTAATCTTTCTGTTCAAGCGCCATCTAC,0.893 RPM ratio (pull-down/input)
17,GATGATTGTTCTCCCAGCTGATGAATTGCGGCCATCGAGTAAACAAATTTTCCTAATCTTTCTGTTCAAGCGCCATCTAC,1.08 RPM ratio (pull-down/input)
18,GATGATTGTTCTCCCAGCTGATGAATTCAGTCCGTCGAGTAAACAAATTTTCCTAATCTTTCTGTTCAAGCGCCATCTAC,0.766 RPM ratio (pull-down/input)
19,GATGATTGTTCTCCCAGCTGATGAATTATACTTTTCGAGTAAACAAATTTTCCTAATCTTTCTGTTCAAGCGCCATCTAC,1.14 RPM ratio (pull-down/input)
20,GATGATTGTTCTCCCAGCTGATGAATTTACGCCTTCGAGTAAACAAATTTTCCTAATCTTTCTGTTCAAGCGCCATCTAC,1.29 RPM ratio (pull-down/input)

row,Sequence,binding signal
1,GATGATTGTTCTCCCAGCTGATGAATTATACAAGTCGAGTAAACAAATTTTCCTAATCTTTCTGTTCAAGCGCCATCTAC,1.27 RPM ratio (pull-down/input)
2,GATGATTGTTCTCCCAGCTGATGAATTCAGAGGATCGAGTAAACAAATTTTCCTAATCTTTCTGTTCAAGCGCCATCTAC,0.836 RPM ratio (pull-down/input)
3,GATGATTGTTCTCCCAGCTGATGAATTGCCACTGTCGAGTAAACAAATTTTCCTAATCTTTCTGTTCAAGCGCCATCTAC,0.956 RPM ratio (pull-down/input)
4,GATGATTGTTCTCCCAGCTGATGAATTTCGATTATCGAGTAAACAAATTTTCCTAATCTTTCTGTTCAAGCGCCATCTAC,1.09 RPM ratio (pull-down/input)
5,GATGATTGTTCTCCCAGCTGATGAATTTTACCCGTCGAGTAAACAAATTTTCCTAATCTTTCTGTTCAAGCGCCATCTAC,0.835 RPM ratio (pull-down/input)
6,GATGATTGTTCTCCCAGCTGATGAATTTTGGCGCTCGAGTAAACAAATTTTCCTAATCTTTCTGTTCAAGCGCCATCTAC,0.742 RPM ratio (pull-down/input)
7,GATGATTGTTCTCCCAGCTGATGAATTGAGCCACTCGAGTAAACAAATTTTCCTAATCTTTCTGTTCAAGCGCCATCTAC,0.828 RPM ratio (pull-down/input)
8,GATGATTGTTCTCCCAGCTGATGAATTCGAGATCTCGAGTAAACAAATTTTCCTAATCTTTCTGTTCAAGCGCCATCTAC,0.762 RPM ratio (pull-down/input)
9,GATGATTGTTCTCCCAGCTGATGAATTCCAACTTTCGAGTAAACAAATTTTCCTAATCTTTCTGTTCAAGCGCCATCTAC,0.884 RPM ratio (pull-down/input)
10,GATGATTGTTCTCCCAGCTGATGAATTCCTGCACTCGAGTAAACAAATTTTCCTAATCTTTCTGTTCAAGCGCCATCTAC,0.826 RPM ratio (pull-down/input)
11,GATGATTGTTCTCCCAGCTGATGAATTCTCCTCATCGAGTAAACAAATTTTCCTAATCTTTCTGTTCAAGCGCCATCTAC,0.888 RPM ratio (pull-down/input)
12,GATGATTGTTCTCCCAGCTGATGAATTCACATCATCGAGTAAACAAATTTTCCTAATCTTTCTGTTCAAGCGCCATCTAC,1.1 RPM ratio (pull-down/input)
13,GATGATTGTTCTCCCAGCTGATGAATTGACTGCCTCGAGTAAACAAATTTTCCTAATCTTTCTGTTCAAGCGCCATCTAC,0.958 RPM ratio (pull-down/input)
14,GATGATTGTTCTCCCAGCTGATGAATTCCTGGTATCGAGTAAACAAATTTTCCTAATCTTTCTGTTCAAGCGCCATCTAC,0.87 RPM ratio (pull-down/input)
15,GATGATTGTTCTCCCAGCTGATGAATTGGATGCTTCGAGTAAACAAATTTTCCTAATCTTTCTGTTCAAGCGCCATCTAC,1.05 RPM ratio (pull-down/input)
16,GATGATTGTTCTCCCAGCTGATGAATTTATTATATCGAGTAAACAAATTTTCCTAATCTTTCTGTTCAAGCGCCATCTAC,1.22 RPM ratio (pull-down/input)
17,GATGATTGTTCTCCCAGCTGATGAATTGCTAAGGTCGAGTAAACAAATTTTCCTAATCTTTCTGTTCAAGCGCCATCTAC,0.922 RPM ratio (pull-down/input)
18,GATGATTGTTCTCCCAGCTGATGAATTGTTGTGATCGAGTAAACAAATTTTCCTAATCTTTCTGTTCAAGCGCCATCTAC,2.32 RPM ratio (pull-down/input)
19,GATGATTGTTCTCCCAGCTGATGAATTTGGGACTTCGAGTAAACAAATTTTCCTAATCTTTCTGTTCAAGCGCCATCTAC,0.918 RPM ratio (pull-down/input)
20,GATGATTGTTCTCCCAGCTGATGAATTCCGCGACTCGAGTAAACAAATTTTCCTAATCTTTCTGTTCAAGCGCCATCTAC,0.761 RPM ratio (pull-down/input)

# Source: article PMC12820563, “FoxP3 forms a head-to-head dimer in vivo and stabilizes its multimerization on adjacent microsatellites”
